Test results as given in ChEMBL document CHEMBL4888484, “Replenishing the malaria drug discovery pipeline: Screening and hit evaluation of the MMV Hit Generation Library 1 (HGL1) against asexual blood stage Plasmodium falciparum ,using a nano luciferase reporter read-out” (2022).
Out of some 150,000 compounds screened, about 540 (0.36%) showed an effect of 50% or more. This is one part of the list.

Each compound was assayed on Plasmodium falciparum (assay: Primary screen in NF54 nanoGlo assay, in single point, at 2uM, 72h; a lower Z score goes with more inhibition). Details: timepoint 72 hour.
Type: functional, Erythrocyte

Q: With `O=C(CCn1c(=O)cc(C(F)F)c2cn(Cc3ccccc3)nc21)NC1CCCC1` as the compound, how does the “% Inhibition” value read?
A: Its value is 3%.

Q: What about the Z score of the same compound?
A: The Z score was -0.39.

Q: Which “% Inhibition” value does the source give for `CCOC(=O)CN(CC(=O)NCc1ccc2c(c1)OCO2)C(C)(C)C` here?
A: Its value is -13%.

Q: And the Z score?
A: The Z score was 1.71.

Q: With `O=C(Cc1ccc(F)cc1F)N1CC(CN2C(=O)CCC2=O)C1` as the compound, how does the “% Inhibition” value read?
A: The value was -13%.

Q: And the Z score?
A: The Z score was 1.67.

Q: For `Cc1cc(NC(=O)Cn2c(=O)c(C(F)(F)F)cn(C(C)C)c2=O)no1`, which “% Inhibition” value is on record?
A: Its value is -21%.

Q: And the Z score?
A: Its Z score is 2.62.

Q: Which “% Inhibition” value does the source give for `CCc1cc(NC(=O)NC2CCN(c3ccc(C(C)(C)C)cc3)CC2)n(C)n1` here?
A: The value was -3%.

Q: What about the Z score of the same compound?
A: The Z score was 0.31.

Q: Which “% Inhibition” value does the source give for `CC(C)CNC(=O)c1cc2cc(NC(=O)c3ccc(C(C)(C)C)cc3)ccc2n1Cc1ccc(C(C)(C)C)cc1` here?
A: Its value is -3%.

Q: And the Z score?
A: The Z score was 0.34.

Q: How did the “% Inhibition” value turn out when `COC(=O)CN1CCN(C(=O)c2[nH]c3ccc(C)cc3c2C)CC1=O` was run?
A: The value was -7%.

Q: And the Z score?
A: Its Z score is 0.59.

Q: `CC(C)OC(=O)Cc1nnc2cc(Cl)ccc2n1` was tested. Which “% Inhibition” value did it give?
A: The value was 1%.

Q: And the Z score?
A: The Z score was -0.19.

Q: With `O=C(CCCC(=O)N1CC[C@H](OCC2CC2)C1)c1ccccc1` as the compound, how does the “% Inhibition” value read?
A: The value was -21%.

Q: And the Z score?
A: The Z score was 3.3.

Q: How did the “% Inhibition” value turn out when `CN(C)C(=O)[C@H](NC(=O)c1cc(Cl)c2c(c1)OCCCO2)c1ccccc1` was run?
A: The value was -34%.

Q: And the Z score?
A: The Z score was 4.01.

Q: Which results are given for `COc1cc(NC(=O)N2C[C@@H](F)C[C@H]2C(=O)N2CCc3ccccc3C2)cc(OC)c1`?
A: % Inhibition: -9%; Z score: 1.04

Q: What does the source list for `CCOC(=O)c1cc2n(n1)C[C@@](C)(C(=O)NCCC(C)C)N(c1ccc(C)cc1C)C2=O`?
A: % Inhibition: -5%; Z score: 0.58

Q: With `O=C(Cn1cnc2c(cnn2-c2cccc(Cl)c2)c1=O)N1CCC(Cc2ccccc2)CC1` as the compound, how does the “% Inhibition” value read?
A: Its value is 7%.

Q: And the Z score?
A: The Z score was -0.93.

Q: What does the source list for `CN1CCN(CCOc2ccc(NC(=O)c3ncc4c(F)cccn34)cc2)CC1`?
A: % Inhibition: -10%; Z score: 1.41

Q: Which “% Inhibition” value does the source give for `Cn1cc(C(=O)N2CCCOCC2)c(C(F)F)n1` here?
A: The value was -16%.

Q: And the Z score?
A: Its Z score is 1.85.

Q: With `O=C(NC[C@@H](O)CCc1ccccc1)c1ccc(O)c(Cl)c1` as the compound, how does the “% Inhibition” value read?
A: The value was 4%.

Q: And the Z score?
A: The Z score was -0.74.

Q: Which results are given for `Cc1cc(=O)n(CCN(C)CCc2scnc2C)c(=O)[nH]1`?
A: % Inhibition: -14%; Z score: 1.3

Q: How did the “% Inhibition” value turn out when `CC1(C)CN(CC(=O)N2CCCC2)c2ccc(S(=O)(=O)Nc3cccnc3)cc21` was run?
A: Its value is 3%.

Q: And the Z score?
A: Its Z score is -0.38.

Q: What does the source list for `C=CCNC(=O)[C@@H](NC(=O)c1cccc(OC)c1)C1CCN(C(=O)c2ccc(C)cc2)CC1`?
A: % Inhibition: -14%; Z score: 1.28

Q: Which “% Inhibition” value does the source give for `CC(C)n1cc([C@H](C)NC(=O)c2cc3n(n2)CCC3)cn1` here?
A: The value was -6%.

Q: And the Z score?
A: Its Z score is 0.98.

Q: Which results are given for `O=C1NCCN1C(=O)N[C@H]1CC[C@H](Oc2cnccn2)CC1`?
A: % Inhibition: -2%; Z score: 0.25

Q: For `CN1CCCC(C)(C)[C@@H]1CNC(=O)NCc1nccn1C(F)F`, which “% Inhibition” value is on record?
A: Its value is -8%.

Q: And the Z score?
A: Its Z score is 0.9.
